# In PubChem BioAssay (NCI):
#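 Each compound was tested at five concentrations against cells in 96-well plates for 48 hours. Here, GI50 denotes the concentration required for 50% inhibition of growth. Definition used: TGI = concentration required for complete inhibition of growth.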
# Tested on: NCI-H322M lung
# Assay: NCI anticancer screen, dose series, 48 h
SMILES,TGI [µM],GI50 [µM]
CCOC(=O)c1c(N2CCCC2)nsc1Nc1ccc(F)cc1,> 100,
C[C@H](OCc1ccccc1)C(=O)N1CCS(=O)(=O)N2CCC[C@H]2C1=O,> 100,
COc1ccc2nc(N/N=C/C(C)=N/Nc3cc(C)c4cc(OC)ccc4n3)cc(C)c2c1,47.7,
Cc1ccc(C2=Nc3cccc4cccc(c34)N2)cc1,> 100,
NC(=O)c1cc2cc(Cl)cc(Cl)c2oc1=Nc1ccc(F)cc1,29.8,
COc1cc(C=C2C(C)=NN(c3cccc(Cl)c3)C23SCC(=O)N3c2nc3ccccc3s2)ccc1O (stereo not given),> 100,
Nc1nc2c(c3ncncc13)C(c1cccc(C(F)(F)F)c1)Cc1ncncc1-2 (stereo not given),57.8,5.56
N#CCc1nc2ccccc2c(=O)[nH]1,> 100,
COc1ccc(/C(C#N)=C/c2ccccc2OC)cc1,> 100,80.5
CCSCCC(N)C(=O)O (stereo not given),> 100,
CC#C[C@]1(O)CC[C@H]2[C@@H]3CCC4=CC(=O)CCC4=C3[C@@H](c3ccc4c(c3)OCO4)C[C@@]21C,862,122
COc1ccc(C2=Nc3ccccc3NC(=O)C2)cc1,> 100,
COc1ccc2c(C)cc(N/N=C(\C)C=O)nc2c1,24.8,
O=C(NCCCCCCNC(=O)n1cc(F)c(=O)[nH]c1=O)NCCCOCCOCCOCCOCCOCCOCCOCCOCCOCCOCCOCCOCCOCCOCCOCCOCCOCCOCCOCCOCCOCCCNC(=O)C(O)C(O)C(O)C(O)CO (stereo not given),> 100,
Cc1cc(N(CCCl)CCCl)ccc1C=Nc1ccc(-c2csc(Cc3ccccc3)n2)cc1,> 100,20.8
O=C1C(Cl)=C(OCCCCl)C(=O)c2c(O)ccc(O)c21,3.4,
C=CC/C=C/Cc1csc(C(C)(C)C(O)C/C=C/C(=C)CCNC(=O)OC)n1 (stereo not given),> 100,

SMILES,TGI [µM],GI50 [µM]
CCOC(=O)COc1ccccc1/C=C1\CCC(CN(C)C)C1=O (stereo not given),31.5,
CCOC(=O)N(Cc1cccs1)c1cc(OC)c(OC)c(OC)c1,> 100,
C/C(=N/NC(=S)Nc1ccc([N+](=O)[O-])cc1)c1cccc(/C(C)=N\NC(=S)Nc2ccc([N+](=O)[O-])cc2)n1,8.44,
COc1cccc(-n2ncc3c(N/N=C/c4ccc(C(=O)NCCN(C)C)cc4)ncnc32)c1,8.16,3.49
O=C(/C=C(\O)c1ccccc1)C(=O)NNc1ccc([N+](=O)[O-])cc1[N+](=O)[O-],63.7,
O=CC(=C(I)I)c1ccccc1,29.2,
Cn1c(=O)c2c(nc(-n3nc(-c4ccc(Cl)cc4)cc3N)n2C)n(C)c1=O,> 100,
CC(=O)NC(CS/N=N/c1nc[nH]c1C(N)=O)C(=O)O (stereo not given),> 100,
CC1(C)C(=NNC(=O)C[N+](C)(C)C)C(C)(C)C1=NNC(=O)C[N+](C)(C)C,> 100,
CCCCCCCCCCCC(=O)OCC1OC(n2cc(F)c(=O)[nH]c2=O)C(NC(=O)OCc2ccccc2)C(OC(=O)CCCCCCCCCCC)C1O (stereo not given),> 100,
Nc1ccn(CCNCCn2cnc3nc(N)[nH]c(=O)c32)c(=O)n1,> 100,
CC(=O)Nc1cc([As](=O)(O)O)ccc1O,> 100,
COc1cc(/C=C/c2cc(O)c3cc(C(C)=O)c(=O)oc3c2)cc2c1O[C@]1(C)CC[C@@H](O)C(C)(C)[C@H]1C2,> 47.1,> 26.5
N#CC12C(=O)N3C(=NC(c4ccccc4)NC3c3ccccc3)C1(C#N)C(c1ccccc1)NC1=C2CCC1 (stereo not given),> 100,
O=C(CN1CCOCC1)Nc1nc(-c2ccc(Cl)cc2)cs1,> 100,
[N-]=[N+]=Nc1c(C=O)c(=O)n2c3c(cccc13)CCC2,31.5,
COc1cc(/C=C/C(=O)c2ccc(NS(=O)(=O)c3cc([N+](=O)[O-])ccc3C)cc2)cc(OC)c1OC,16.3,
